pIC50: −log10 of the molar value. By IC50 is meant the dose at which the fit gives 50% viability; fits outside the tested doses are given as limits. For AUC the same curve is integrated over the 256-fold range of doses and scaled to a fraction: 1 means no effect, lower means more sensitive. An inferred top dose comes from the curve model; the source does not state it.
Compound: CCc1nc(-c2cccc(C)c2)c(-c2ccnc(NC(=O)c3ccccc3)c2)s1 [TAK-715]
Assay: Viability of human cancer cell lines after 72 h of drug (GDSC screen)
Details: top dose inferred
Procedure: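 Human cancer cell lines in 384-well plates, medium with 10% serum, drug for 72 h over a 256-fold dose range (nine 2-fold or five 4-fold steps up to the top dose). Adherent lines were fixed and stained with the nucleic acid dye Syto60, suspension lines read with resazurin; signal relative to control wells, capped at 0 and 100%. One two-parameter sigmoid per drug and line, fitted in a mixed model over all curves with the slope shared within a line.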

Row | Cell Line | AUC | pIC50
1 | OV-90 (ovary, adherent, top dose 20 µM) | 0.91 | < 4.70
2 | OVCA420 (ovary, adherent, top dose 20 µM) | 0.973 | < 4.70
3 | OVCA433 (ovary, adherent, top dose 20 µM) | 0.939 | < 4.70
4 | OVCAR-3 (ovary, adherent, top dose 20 µM) | 0.979 | < 4.70
5 | OVCAR-4 (ovary, adherent, top dose 20 µM) | 0.871 | < 4.70
6 | OVCAR-5 (ovary, adherent, top dose 20 µM) | 0.964 | < 4.70
7 | OVCAR-8 (ovary, adherent, top dose 20 µM) | 0.972 | < 4.70
8 | OVISE (ovary, adherent, top dose 20 µM) | 0.92 | < 4.70
9 | OVK-18 (ovary, adherent, top dose 20 µM) | 0.938 | < 4.70
10 | OVKATE (ovary, adherent, top dose 20 µM) | 0.972 | < 4.70
11 | OVMIU (ovary, adherent, top dose 20 µM) | 0.891 | < 4.70
12 | OVTOKO (ovary, adherent, top dose 20 µM) | 0.918 | < 4.70
13 | P12-ICHIKAWA (T-cell lymphoblastic leukaemia, suspension, top dose 20 µM) | 0.745 | 5.29
14 | P30-OHK (lymphoblastic leukaemia, suspension, top dose 20 µM) | 0.884 | 4.81
15 | P31-FUJ (acute myeloid leukaemia, suspension, top dose 20 µM) | 0.978 | < 4.70
16 | P32-ISH (Burkitt lymphoma, suspension, top dose 20 µM) | 0.908 | 4.82
17 | PA-1 (ovary, adherent, top dose 20 µM) | 0.805 | 5.12
18 | PA-TU-8902 (pancreas, adherent, top dose 20 µM) | 0.946 | < 4.70
19 | PA-TU-8988T (pancreas, adherent, top dose 20 µM) | 0.948 | < 4.70
20 | PANC-02-03 (pancreas, adherent, top dose 20 µM) | 0.962 | < 4.70
21 | PANC-03-27 (pancreas, adherent, top dose 20 µM) | 0.925 | < 4.70

Row | Cell Line | AUC | pIC50
22 | PANC-04-03 (pancreas, adherent, top dose 20 µM) | 0.978 | < 4.70
23 | PANC-08-13 (pancreas, adherent, top dose 20 µM) | 0.977 | < 4.70
24 | PANC-10-05 (pancreas, adherent, top dose 20 µM) | 0.936 | < 4.70
25 | PC-3 (prostate, adherent, top dose 20 µM) | 0.901 | < 4.70
26 | PC-3 [JPC-3] (lung adenocarcinoma, adherent, top dose 20 µM) | 0.592 | 5.61
27 | PC-14 (lung adenocarcinoma, adherent, top dose 20 µM) | 0.875 | 4.80
28 | PCI-4B (head and neck, adherent, top dose 20 µM) | 0.904 | < 4.70
29 | PCI-6A (head and neck, adherent, top dose 20 µM) | 0.858 | 4.80
30 | PCI-15A (head and neck, adherent, top dose 20 µM) | 0.897 | < 4.70
31 | PCI-30 (head and neck, adherent, top dose 20 µM) | 0.979 | < 4.70
32 | PCI-38 (head and neck, adherent, top dose 20 µM) | 0.941 | < 4.70
33 | PE/CA-PJ15 (head and neck, adherent, top dose 20 µM) | 0.957 | < 4.70
34 | PEO1 (ovary, adherent, top dose 20 µM) | 0.952 | < 4.70
35 | PF-382 (T-cell lymphoblastic leukaemia, suspension, top dose 20 µM) | 0.863 | 4.86
36 | PFSK-1 (medulloblastoma, adherent, top dose 20 µM) | 0.959 | < 4.70
37 | PL4 (pancreas, adherent, top dose 20 µM) | 0.966 | < 4.70
38 | PL18 (pancreas, adherent, top dose 20 µM) | 0.974 | < 4.70
39 | PL-21 (acute myeloid leukaemia, suspension, top dose 20 µM) | 0.809 | 4.90
40 | PSN1 (pancreas, adherent, top dose 20 µM) | 0.939 | < 4.70
41 | QGP-1 (pancreas, adherent, top dose 20 µM) | 0.965 | < 4.70
42 | QIMR-WIL (acute myeloid leukaemia, suspension, top dose 20 µM) | 0.744 | 5.22

Row | Cell Line | AUC | pIC50
43 | RC-K8 (B-cell lymphoma, suspension, top dose 20 µM) | 0.909 | < 4.70
44 | RCC10RGB (kidney, adherent, top dose 10.24 µM) | 0.971 | < 4.99
45 | RCC-AB (kidney, adherent, top dose 20 µM) | 0.826 | 4.76
46 | RCC-ER (kidney, adherent, top dose 20 µM) | 0.957 | < 4.70
47 | RCC-FG2 (kidney, adherent, top dose 20 µM) | 0.921 | < 4.70
48 | RCC-JF (kidney, adherent, top dose 20 µM) | 0.836 | 4.80
49 | RCC-JW (kidney, adherent, top dose 20 µM) | 0.911 | < 4.70
50 | RCC-MF (kidney, adherent, top dose 20 µM) | 0.816 | 4.81
51 | RCM-1 (large intestine, adherent, top dose 20 µM) | 0.94 | < 4.70
52 | RD (rhabdomyosarcoma, adherent, top dose 20 µM) | 0.983 | < 4.70
53 | REH (B-cell leukaemia, suspension, top dose 20 µM) | 0.859 | 4.81
54 | RERF-GC-1B (stomach, adherent, top dose 20 µM) | 0.879 | < 4.70
55 | RERF-LC-KJ (lung adenocarcinoma, adherent, top dose 20 µM) | 0.937 | < 4.70
56 | RERF-LC-MS (lung adenocarcinoma, adherent, top dose 20 µM) | 0.971 | < 4.70
57 | RERF-LC-Sq1 (lung squamous cell carcinoma, adherent, top dose 20 µM) | 0.905 | < 4.70
58 | RF-48 (stomach, adherent, top dose 20 µM) | 0.877 | < 4.70
59 | RH-1 (rhabdomyosarcoma, adherent, top dose 20 µM) | 0.891 | 4.78
60 | RH-18 (rhabdomyosarcoma, adherent, top dose 20 µM) | 0.985 | < 4.70
61 | RH-41 (rhabdomyosarcoma, adherent, top dose 20 µM) | 0.984 | < 4.70
